The supplement of paper PMC11876631
± gives the standard deviation of the averaged measurements. Laboratory Escherichia coli strains with one amino-acid change in an essential protein, pooled on minimal glucose agar with carbenicillin or gentamicin at twice the control MIC (plus kanamycin and chloramphenicol for the plasmids), 48 h. Fold change of barcode share against drug-free plates; higher = less susceptible. Active = above 20 in both replicates (the paper's putatively resistant). '<' = one read or none on drug, '>' = one read or none on a drug-free plate. Shares are relative, so most strains fall below 1 when a few take over. Listed are strains with at least 15 reads on both drug-free plates, and hits; most hits rest on fewer reference reads. Replicate rank correlation about 0.5. Edits are read from barcodes.

B1: hisD; numbered along this chain (parent)
chain: MSFNTIIDWNSCTAEQQRQLLMRPAISASESITRTVNDILDNVKARGDEALREYSAKFDKTTVTALKVSAEEIAAASERLSDELKQAMAVAVKNIETFHTAQKLPPVDVETQPGVRCQQVTRPVASVGLYIPGGSAPLFSTVLMLATPASIAGCKKVVLCSPPPIADEILYAAQLCGVQDVFNVGGAQAIAALAFGTESVPKVDKIFGPGNAFVTEAKRQVSQRLDGAAIDMPAGPSEVLVIADSGATPDFVASDLLSQAEHGPDSQVILLTPAADMARRVAEAVERQLAELPRAETARQALNASRLIVTKDLAQCVEISNQYGPEHLIIQTRNARELVDSITSAGSVFLGDWSPESAGDYASGTNHVLPTYGYTATCSSLGLADFQKRMTVQELSKEGFSALASTIETLAAAERLTAHKNAVTLRVNALKEQA
B2: grpE; numbered along this chain (parent)
chain: MSSKEQKTPEGQAPEEIIMDQHEEIEAVEPEASAEQVDPRDEKVANLEAQLAEAQTRERDGILRVKAEMENLRRRTELDIEKAHKFALEKFINELLPVIDSLDRALEVADKANPDMSAMVEGIELTLKSMLDVVRKFGVEVIAETNVPLDPNVHQAIAMVESDDVAPGNVLGIMQKGYTLNGRTIRAAMVTVAKAKA
B3: ispH; numbered along this chain (parent)
chain: MQILLANPRGFCAGVDRAISIVENALAIYGAPIYVRHEVVHNRYVVDSLRERGAIFIEQISEVPDGAILIFSAHGVSQAVRNEAKSRDLTVFDATCPLVTKVHMEVARASRRGEESILIGHAGHPEVEGTMGQYSNPEGGMYLVESPDDVWKLTVKNEEKLSFMTQTTLSVDDTSDVIDALRKRFPKIVGPRKDDICYATTNRQEAVRALAEQAEVVLVVGSKNSSNSNRLAELAQRMGKRAFLIDDAKDIQEEWVKEVKCVGVTAGASAPDILVQNVVARLQQLGGGEAIPLEGREENIVFEVPKELRVDIREVD

Variants of: B1
Assay: barcode share on antibiotic plates over drug-free plates; higher = less susceptible
Conditions: with Escherichia coli (laboratory strain); antibiotic: carbenicillin; 2× MIC (3.1 µg/mL)
Method: (§1)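 A pool of E. coli strains, each edited to carry one amino-acid change in an essential protein, was grown for 48 h on minimal glucose agar with or without antibiotic; strain barcodes were sequenced; mean of two replicates.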

Variant	fold change of barcode share
F139A	0.597 ± 0.21
F139D	0.538 ± 0.12
F139P	0.909 ± 0.03
F139Q	0.571 ± 0.13
F139W	0.477 ± 0.16
L143W	1.17 ± 0.45
L143Q	0.546 ± 0.22
L143P	4.68 ± 3
L145P	0.535 ± 0.25
L145D	0.599 ± 0.26
V142A	0.712 ± 0.064
V142P	0.519 ± 0.15
V142Q	0.711 ± 0.11
I330W	0.577 ± 0.095
I330A	0.419 ± 0.027
I329D	0.578 ± 0.13
I329Q	0.638 ± 0.23
I329W	0.493 ± 0.018

Same assay, conditions: with Escherichia coli (laboratory strain); antibiotic: gentamicin; 2× MIC (MIC 0.45 µg/mL)

Variant	fold change of barcode share
F139A	< 0.00508
F139D	0.00446 ± 0.0017
F139P	0.0115 ± 0.01
F139Q	< 0.00375
F139W	0.00421 ± 0.001
M144Q	< 0.0105
M144P	0.0104 ± 0.0064
M144A	0.013 ± 0.0055
L143W	0.0167 ± 0.011
L143Q	0.012 ± 0.0076
L143P	0.0193 ± 0.013
L145P	0.0172 ± 0.0048
L145D	0.0271 ± 0.022
L145A	0.0293 ± 0.014
V142A	0.013 ± 0.0024
V142P	< 0.0161
V142Q	0.0433 ± 0.011
I330A	< 0.01
I329D	< 0.013
I329Q	0.0192 ± 0.0068
I329W	< 0.013

Variants of: B2
Assay: as above
Conditions: with Escherichia coli (laboratory strain); antibiotic: gentamicin; 2× MIC (MIC 0.45 µg/mL)
Method: as §1

Variant	fold change of barcode share
I99Q	< 0.0143
I99A	< 0.0132
I99P	< 0.0142
I142P	0.00451 ± 0.0018
I142Q	0.00755 ± 0.0058
I142W	0.00809 ± 0.0089
I142A	< 0.00645
I142D	< 0.00805
V192W	0.0049 ± 0.0027
V192Q	0.00418 ± 0.0025
V192A	0.0176 ± 0.014
V192P	0.00591 ± 0.0034
V190W	< 0.00301
V190D	< 0.0206
V190A	0.00477 ± 0.0027
L102Q	< 0.0149
L102W	< 0.00576
M119A	0.00909 ± 0.0038
M119D	< 0.00543
M119P	< 0.00649

Same assay, conditions: with Escherichia coli (laboratory strain); antibiotic: carbenicillin; 2× MIC (3.1 µg/mL)

Variant	fold change of barcode share
I142P	0.385 ± 0.21
I142Q	0.286 ± 0.054
I142W	0.249 ± 0.083
I142A	0.34 ± 0.15
I142D	0.42 ± 0.043
V192W	0.265 ± 0.053
V192D	0.151 ± 0.016
V192Q	0.285 ± 0.1
V192A	0.174 ± 0.094
V192P	0.258 ± 0.025
V190W	0.172 ± 0.025
V190Q	0.182 ± 0.018
V190P	0.262 ± 0.074
V190A	0.271 ± 0.16
L102W	0.205 ± 0.069
L102D	0.1826 ± 0.00098
M119A	0.281 ± 0.19
M119D	0.25 ± 0.1
M119P	0.1794 ± 0.00028

Variants of: B3
Assay: as above
Conditions: with Escherichia coli (laboratory strain); antibiotic: carbenicillin; 2× MIC (3.1 µg/mL)
Method: as §1

Variant	fold change of barcode share
L218A	0.327 ± 0.23
L218Q	0.325 ± 0.18
V262Q	0.48 ± 0.18
V262W	0.294 ± 0.072
I70A	0.445 ± 0.014
V99A	0.339 ± 0.12
V99Q	1.75 ± 0.78
V99W	0.236 ± 0.17
V220P	0.628 ± 0.45
V220A	0.169 ± 0.034
F71W	0.284 ± 0.022
F71P	0.285 ± 0.095
V217A	0.412 ± 0.083
V217W	0.343 ± 0.085
V217Q	0.311 ± 0.092

Same assay, conditions: with Escherichia coli (laboratory strain); antibiotic: gentamicin; 2× MIC (MIC 0.45 µg/mL)

Variant	fold change of barcode share
L218A	0.0116 ± 0.011
L218Q	13.6 ± 5.2
L218W	0.0101 ± 0.0082
V262P	0.636 ± 0.82
V262Q	1.01 ± 0.75
V262W	0.0261 ± 0.017
I70A	< 0.00447
I70Q	293 [active]
I70W	> 90.6 [active]
V99Q	< 0.0154
V99W	< 0.0123
V220W	827 [active]
V220A	0.0194 ± 0.02
V220D	> 59 [active]
V217A	< 0.00645
V217W	< 0.0116
V217D	99.9 [active]
V217Q	0.0106 ± 0.0069
